Test results published in PubChem BioAssay (Tox21).
Where “and” joins values, the source holds several entries; their conditions need not be identical. Equal entries are not always repeated. The shares of active, inactive and inconclusive entries below differ from those in the screen. Potencies of inconclusive entries are doubtful fits and often do not repeat. A structure can be active in one record and inactive in another. Calls of active or inactive are those of the source. Calls come from the whole dose curve; as a rule, active = well fitted curve in the direction sought with a large enough effect in the repeat runs; inconclusive = weak or mixed curves; inactive = no such curve, though single readings can be large; an effect the other way counts as inactive or inconclusive.

Assays:
[1] = A CellTox Green Cytotoxicity Assay to monitor cytotoxicity in HepG2 cells - 0 hour (AID 1224882); note: nearly all actives have a fitted effect of over 35% in size
How it was run: (§1)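 First, HepG2 cells (600/well) mixed with reagent were plated; second, after 5 h at 37 C they received compounds via pintool; third, fluorescence was measured at 0 h through 40 h at 8 h intervals.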

[2] = A CellTox Green Cytotoxicity Assay to monitor cytotoxicity in HepG2 cells - 32 hour (AID 1224883); note: nearly all actives have a fitted effect of over 50% in size
How it was run: as §1

[3] = A CellTox Green Cytotoxicity Assay to monitor cytotoxicity in HEK293 cells - 8 hour (AID 1224884); note: nearly all actives have a fitted effect of over 35% in size
How it was run: (§2)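 Dead-cell fluorescence measured kinetically: asymmetric cyanine dye, HEK293, 600 cells/well, 5 h settle, 23 nL cpd/DMSO, 37 C, reads 0–40 h every 8 h.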

[4] = qHTS RealTime-Glo MT Cell Viability Assay in HEK293 cells - 24 hour (AID 1224886); note: nearly all actives have a fitted effect of over 50% in size
How it was run: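 Homogeneous bioluminescent viability format in HEK293 cells (600 cells/well). Following 5 h at 37 C/5% CO2, 23 nL compound was pintooled; the signal was measured repeatedly during 40 h incubation.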

[5] = A CellTox Green Cytotoxicity Assay to monitor cytotoxicity in HEK293 cells - 16 hour (AID 1224888); note: nearly all actives have a fitted effect of over 35% in size
How it was run: as §2

[6] = A CellTox Green Cytotoxicity Assay to monitor cytotoxicity in HepG2 cells - 8 hour (AID 1224890); note: nearly all actives have a fitted effect of over 45% in size
How it was run: as §1

[7] = qHTS RealTime-Glo MT Cell Viability Assay in HepG2 cells - 16 hour (AID 1224885); note: nearly all actives have a fitted effect of over 50% in size
How it was run: (§3)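 Cell number in HepG2 cultures estimated from NanoLuc luminescence generated by metabolic reduction of a prosubstrate by living cells. The homogeneous, nonlytic format allowed repeated reads at 0, 8, 16, 24, 32 and 40 h of compound exposure.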

[8] = qHTS RealTime-Glo MT Cell Viability Assay in HEK293 cells - 8 hour (AID 1224887); note: nearly all actives have a fitted effect of over 50% in size
How it was run: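 600 HEK293 cells per well, dispensed already mixed with RealTime-Glo MT reagents. Compound dosing came 5 h later. The same wells were read for luminescence at 0, 8, 16, 24, 32 and 40 h of exposure at 37 C.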

[9] = qHTS assay to identify small molecule antagonists of the estrogen receptor alpha (ER-alpha) signaling pathway using the BG1 cell line in the presence of 0.1 nM 17-beta-estradiol - cell viability counter screen (AID 1259241); note: nearly all actives have a fitted effect of over 40% in size
How it was run: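 VM7Luc4E2, 4,000 cells/well, phenol red-free medium + 10% charcoal-stripped FBS; 24 hr plating; cpd + 0.1 nM E2 final, 22 hr 37C/5% CO2; CellTiter-Fluor 30 min, fluorescence.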

[10] = qHTS RealTime-Glo MT Cell Viability Assay in HepG2 cells - 0 hour (AID 1224889); note: nearly all actives have a fitted effect of over 50% in size
How it was run: as §3
Potency is the fitted concentration of half-maximal effect; tags give direction and shape of the fitted curve.

With `CCCCCCCC(=O)[O-].CCCCCCCC(=O)[O-].[Zn+2]` as the compound, how does the Potency [1] read?
Its Potency is inconclusive: 53.5 µM [activator, single point].

Which results are given for `Cc1cccc2n[nH]nc12`?
Potency [1]: inconclusive: 43.6 µM [activator, partial curve]; Potency [2]: inconclusive: 38.9 µM [activator, partial curve]; Potency [3]: inconclusive: 30.9 µM [activator, partial curve, poor fit]; Potency [4]: inconclusive: 54.9 µM [cytotoxic, single point]

Which results are given for `S=c1[nH]c2ccccc2s1`?
Potency [1]: inconclusive: 21.9 µM [activator, single point]; Potency [2]: inconclusive: 21.9 µM [activator, single point]; Potency [3]: inconclusive: 54.9 µM [activator, single point]; Potency [5]: inconclusive: 43.6 µM [activator, partial curve]; Potency [6]: inconclusive: 21.9 µM [activator, single point]

Which Potency [1] does the source give for `CC(=O)[C@]1(O)Cc2c(O)c3c(c(O)c2[C@@H](O[C@H]2C[C@H](N)[C@H](O)[C@H](C)O2)C1)C(=O)c1ccccc1C3=O` here?
The Potency was inconclusive: 21.3 µM [activator, single point].

What about the Potency [2] of the same compound?
Its Potency is active: 23.9 µM.

What about the Potency [7] of the same compound?
The Potency was active: 12 µM.

What about the Potency [4] of the same compound?
Its Potency is active: 0.12 µM.

And the Potency [8]?
The Potency was inconclusive: 10.7 µM [cytotoxic, partial curve].

What about the Potency [9] of the same compound?
The Potency was active: 10.6 µM.

With `Cc1ccc(Cl)c(Nc2ccccc2C(=O)O)c1Cl` as the compound, how does the Potency [1] read?
The Potency was “inactive”.

With `Cc1c(C(N)=O)cc([N+](=O)[O-])cc1[N+](=O)[O-]` as the compound, how does the Potency [1] read?
The Potency was inconclusive: 23.9 µM [activator, single point].

And the Potency [4]?
Its Potency is “inactive”.

And the Potency [6]?
The Potency was inconclusive: 26.8 µM [activator, single point].

For `COc1ccc2sc(C(=O)Nc3nnn[nH]3)c(OC(C)C)c2c1`, which Potency [1] is on record?
The Potency was “inactive”.

And the Potency [4]?
Its Potency is inconclusive: 54.7 µM [cytotoxic, partial curve, poor fit].

Which results are given for `Nc1nc2ccc([N+](=O)[O-])cc2s1`?
Potency [1]: inconclusive: 49 µM [activator, partial curve]; Potency [2]: active: 43.6 µM; Potency [3]: inconclusive: 21.9 µM [activator, single point]; Potency [7]: inactive; Potency [4]: inconclusive: 24.5 µM [cytotoxic, partial curve, poor fit]; Potency [6]: active: 49 µM; Potency [9]: inconclusive: 48.6 µM [cytotoxic, partial curve]

Which results are given for `NCCO`?
Potency [1]: inconclusive: 19.5 µM [activator, single point]; Potency [8]: inactive; Potency [5]: inconclusive: 61.6 µM [activator, single point]; Potency [6]: inconclusive: 49 µM [activator, partial curve, poor fit]

For `COc1ncnc(NS(=O)(=O)c2ccc(N)cc2)c1OC`, which Potency [1] is on record?
The Potency was inconclusive: 26.8 µM [activator, single point].

What about the Potency [2] of the same compound?
The Potency was inconclusive: 26.8 µM [activator, single point].

What about the Potency [8] of the same compound?
The Potency was inconclusive: 0.338 µM [cytotoxic, partial curve].

What about the Potency [6] of the same compound?
Its Potency is inconclusive: 30.1 µM [activator, single point].

With `Nc1ccc(N)c(Cl)c1` as the compound, how does the Potency [1] read?
Its Potency is active: 38.9 µM.

And the Potency [7]?
The Potency was active: 43.6 µM.

What about the Potency [4] of the same compound?
Its Potency is inconclusive: 54.9 µM [cytotoxic, single point].

What about the Potency [8] of the same compound?
The Potency was active: 21.8 µM and active: 43.6 µM.

What about the Potency [9] of the same compound?
The Potency was inconclusive: 68.5 µM [cytotoxic].

Which Potency [1] does the source give for `CC(=O)Oc1ccc(C2(c3ccc(OC(C)=O)cc3)Oc3ccccc3NC2=O)cc1` here?
The Potency was “inactive”.

And the Potency [2]?
The Potency was inconclusive: 30.1 µM [activator, single point].

Which results are given for `C=Cc1ccc(S(=O)(=O)O)cc1`?
Potency [1]: active: 49 µM; Potency [3]: inconclusive: 54.9 µM [activator, single point]; Potency [5]: inconclusive: 61.7 µM [activator, single point]

Which Potency [1] does the source give for `CCOC(=O)[C@@](C)(N)Cc1ccc(O)c(O)c1` here?
The Potency was inconclusive: 26.8 µM [activator, single point].

What about the Potency [2] of the same compound?
The Potency was inconclusive: 26.8 µM [activator, single point].

What about the Potency [6] of the same compound?
Its Potency is inconclusive: 26.8 µM [activator, single point].

And the Potency [9]?
The Potency was inconclusive: 29.8 µM [cytotoxic, partial curve, poor fit].

With `NCCCC(O)(P(=O)(O)O)P(=O)(O)O` as the compound, how does the Potency [1] read?
The Potency was inconclusive: 26.8 µM [activator, single point].

What about the Potency [2] of the same compound?
Its Potency is inconclusive: 26.8 µM [activator, single point].

And the Potency [6]?
The Potency was inconclusive: 23.9 µM [activator, single point].

Which results are given for `Cc1cccc(O)c1C`?
Potency [1]: inconclusive: 50.4 µM [activator, partial curve, poor fit]; Potency [2]: inactive and inconclusive: 56.6 µM [activator, partial curve, poor fit]; Potency [5]: inconclusive: 22.5 µM [activator, single point]; Potency [6]: inconclusive: 50.4 µM [activator, single point]

Which Potency [1] does the source give for `O=C(O)c1ccc(-n2nc(-c3ccccc3O)nc2-c2ccccc2O)cc1` here?
Its Potency is inconclusive: 10.7 µM [activator, single point].

For `O=C1c2ccccc2C(=O)N1CCc1noc(-c2ccc(CN3CCCCCC3)s2)n1`, which Potency [1] is on record?
Its Potency is active: 35.7 µM.

And the Potency [7]?
The Potency was inconclusive: 44.9 µM [cytotoxic, partial curve, poor fit].

And the Potency [8]?
Its Potency is active: 35.7 µM.

And the Potency [5]?
The Potency was inconclusive: 31.8 µM [activator, partial curve].

With `CC[N+](CC)(CCNC(=O)C(=O)NCC[N+](CC)(CC)Cc1ccccc1Cl)Cc1ccccc1Cl` as the compound, how does the Potency [1] read?
Its Potency is “inactive”.

Which Potency [1] does the source give for `Oc1ccc2ccccc2c1N=Nc1ccccc1` here?
The Potency was “inactive”.

What about the Potency [8] of the same compound?
The Potency was inconclusive: 43.6 µM [cytotoxic, partial curve] and inconclusive: 38.9 µM [cytotoxic, partial curve, poor fit].

What about the Potency [9] of the same compound?
Its Potency is active: 30.6 µM.

What does the source list for `CCOC(=O)c1ccc(O)c(O)c1`?
Potency [1]: inconclusive: 15.1 µM [activator, single point]; Potency [2]: inactive; Potency [6]: inconclusive: 15.1 µM [activator, single point]

For `CC(=O)/C(C)=C/C1C(C)=CCCC1(C)C` (stereo unspecified), which Potency [2] is on record?
The Potency was inconclusive: 54.9 µM [activator, partial curve, poor fit].

Which results are given for `CN1CCN(CCC(=O)N2c3ccccc3Sc3ccc(C(F)(F)F)cc32)CC1`?
Potency [1]: inconclusive: 10.7 µM [activator, single point]; Potency [7]: inconclusive: 23.9 µM [cytotoxic, single point]; Potency [4]: inconclusive: 26.8 µM [cytotoxic, single point]; Potency [8]: inconclusive: 26.8 µM [cytotoxic, single point]; Potency [10]: inconclusive: 8.49 µM [rising, partial curve, poor fit]; Potency [6]: inconclusive: 10.7 µM [activator, single point]

What does the source list for `CC1=C(/C=C/C(C)=C/C=C/C(C)=C/C(=O)O)C(C)(C)CCC1`?
Potency [1]: inconclusive: 26.8 µM [activator, single point]; Potency [2]: inconclusive: 26.8 µM [activator, single point]; Potency [4]: inactive; Potency [6]: inconclusive: 26.8 µM [activator, single point]

For `C[C@@H]1C[C@H]2[C@@H]3C[C@H](F)C4=CC(=O)C=C[C@]4(C)[C@@]3(F)[C@@H](O)C[C@]2(C)[C@@]1(O)C(=O)CO`, which Potency [1] is on record?
Its Potency is inconclusive: 13.4 µM [activator, single point].

What about the Potency [2] of the same compound?
Its Potency is inconclusive: 15.1 µM [activator, single point].

And the Potency [10]?
Its Potency is active: 21.3 µM.

What about the Potency [6] of the same compound?
The Potency was inconclusive: 15.1 µM [activator, single point].

Which results are given for `COC(=O)[C@H]1[C@H]2C[C@@H]3c4[nH]c5cc(OC)ccc5c4CCN3C[C@H]2C[C@@H](OC(=O)/C=C/c2ccc(O)c(OC)c2)[C@@H]1OC`?
Potency [1]: active: 26.8 µM; Potency [3]: active: 19 µM; Potency [4]: inconclusive: 6.01 µM [cytotoxic, partial curve]; Potency [8]: inconclusive: 8.49 µM [cytotoxic, partial curve]

With `O=C(O)C[C@H](NC(=O)OCc1ccccc1)C(=O)O` as the compound, how does the Potency [1] read?
Its Potency is “inactive”.

What does the source list for `CCN(CC)CCOC(=O)C(Cc1cccc2ccccc12)CC1CCCO1` (stereo unspecified)?
Potency [1]: inconclusive: 10.7 µM [activator, single point]; Potency [4]: inconclusive: 15.1 µM [cytotoxic, partial curve]; Potency [6]: inconclusive: 10.7 µM [activator, single point]

What does the source list for `CCc1ccc(C(c2ccc(CC)cc2)C(Cl)Cl)cc1`?
Potency [1]: inconclusive: 43.6 µM [activator, partial curve, poor fit]; Potency [3]: inconclusive: 55.9 µM [activator, single point]; Potency [4]: inconclusive: 49.8 µM [cytotoxic, single point] and inconclusive: 38.9 µM [cytotoxic, partial curve]; Potency [8]: inconclusive: 44.4 µM [cytotoxic, partial curve]; Potency [5]: inconclusive: 55.9 µM [activator, single point]; Potency [6]: inconclusive: 43.6 µM [activator, partial curve]

Which results are given for `Cn1cnc([N+](=O)[O-])c1Sc1ncnc2nc[nH]c12`?
Potency [1]: inconclusive: 61.3 µM [activator, single point]; Potency [7]: inactive; Potency [4]: inconclusive: 17.3 µM [cytotoxic, full curve] and inconclusive: 23.9 µM [cytotoxic, single point]; Potency [8]: inconclusive: 61.3 µM [cytotoxic, partial curve, poor fit]; Potency [5]: inconclusive: 24.4 µM [activator, partial curve]; Potency [6]: inconclusive: 54.6 µM [activator, single point]; Potency [9]: inconclusive: 0.383 µM [cytotoxic, full curve, poor fit]
